# Laboratory results as given in the RNAGym collection of RNA variant scans (doi:10.1101/gad.245936.114).
# Variants at the floor of the assay are shown more often than the library holds them.
# B1: tRNA (parent)
# chain: CUCUCGGUAGCCAAGUUGGUUUAAGGCGCAAGACUUUAAUUUAUCACUACGAAAUCUUGAGAUCGGGCGUUCGACUCGCCCCCGGGAGAUUUUUUCCUCGAGCAA
# Variants of: B1
# Assay: nonsense suppression (GFP-seq) (ratio to wild type); higher = more function; SUP4oc tRNA, yeast GFP reporter sort-seq
# Procedure, shortened: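 Yeast carrying genome-integrated SUP4oc tRNA variants from a library with ~3% random mutations were grown in raffinose/galactose medium with 80 mg/L adenine. Each strain also carried a galactose-driven GFP ochre reporter and RFP. Cells were sorted into GFP/RFP bins, and each bin was Illumina-sequenced (phred ≥30). Nonsense suppression (GFPSEQ) is the bin median GFP/RFP, weighted by each variant's estimated cell share per bin, relative to wild-type SUP4oc; variants needed ≥100 reads and ≥30 cells.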
row,Variant,nonsense suppression
1,A9C U22G,0.878
2,A9C U35A,≤ 0.026
3,A9C U55A,≤ 0.026
4,A9C U57A,≤ 0.026
5,A9C U57C,≤ 0.026
6,A9C U57C G78C,≤ 0.026
7,A9C U57G C82U,≤ 0.026
8,A9C U63C G84U,≤ 0.026
9,A9C U70A,≤ 0.026
10,A9C U76C,0.929
11,A9G A13C A33C G78A,≤ 0.026
12,A9G A13C A60G,≤ 0.026
13,A9G A13G,0.205
14,A9G A13G G19U G85A,≤ 0.026
15,A9G A13G U70A C82U,≤ 0.026
16,A9G A14C A54G,≤ 0.026
17,A9G A14U,≤ 0.026
18,A9G A14U A23G U71C C77A G85A,≤ 0.026
19,A9G A14U A54C G66A G88U,≤ 0.026
20,A9G A14U G59C U71C,≤ 0.026
21,A9G A23C G25C,≤ 0.026

row,Variant,nonsense suppression
1,A9G A24G,0.0517
2,A9G A24G U55A C75A,≤ 0.026
3,A9G A30C,≤ 0.026
4,A9G A30C U35C,≤ 0.026
5,A9G A30G,0.466
6,A9G A30G G32C G61U G67U,≤ 0.026
7,A9G A33G C34G U55A U76A G84C,≤ 0.026
8,A9G A33G U35G C80G,≤ 0.026
9,A9G A33U A62G,≤ 0.026
10,A9G A33U C34G U71A,≤ 0.026
11,A9G A33U C80U,≤ 0.026
12,A9G A33U U63G C80G,≤ 0.026
13,A9G A54C U58A G84A,≤ 0.026
14,A9G A60C,≤ 0.026
15,A9G A60C C68U G73A,≤ 0.026
16,A9G A60G,0.222
17,A9G A62G,≤ 0.026
18,A9G A62G C77G,≤ 0.026
19,A9G A89C,≤ 0.026
20,A9G C11A A30G G85A G86U,≤ 0.026
21,A9G C11G A30C C34G,≤ 0.026

row,Variant,nonsense suppression
1,A9G C11G A33G U76A,≤ 0.026
2,A9G C11G U57C,≤ 0.026
3,A9G C11U G18A G32A A62C G66C A89C,≤ 0.026
4,A9G C11U G61C,≤ 0.026
5,A9G C11U G67C C68G C80G,≤ 0.026
6,A9G C12G C34G G86C,≤ 0.026
7,A9G C12U A33U,≤ 0.026
8,A9G C27A A33C,≤ 0.026
9,A9G C27G,≤ 0.026
10,A9G C27G C29G G73C C80A A87G,≤ 0.026
11,A9G C27G G67C G85A,≤ 0.026
12,A9G C29G A74G C75A A87C,≤ 0.026
13,A9G C29G U58C U71C,≤ 0.026
14,A9G C29U A30G U76A,≤ 0.026
15,A9G C29U A31U U35C C77G,≤ 0.026
16,A9G C34G,≤ 0.026
17,A9G C34G U57C,≤ 0.026
18,A9G C34U G65A,≤ 0.026
19,A9G C56G G67U U71A G88A,≤ 0.026
20,A9G C77U,≤ 0.026
21,A9G C79G,≤ 0.026

row,Variant,nonsense suppression
1,A9G G10U U35C A54C U57A G84C,≤ 0.026
2,A9G G15A A23U U63A,≤ 0.026
3,A9G G15A G19U A31C U55C U58G,≤ 0.026
4,A9G G15A U16A A62C U70G A74C,≤ 0.026
5,A9G G18C A89U,≤ 0.026
6,A9G G18C C29U,≤ 0.026
7,A9G G18C G78C,≤ 0.026
8,A9G G18C U63A G88C,≤ 0.026
9,A9G G19A G73C,≤ 0.026
10,A9G G19C G69U,≤ 0.026
11,A9G G19U G65U G67U G78A,≤ 0.026
12,A9G G25C G65A G69A,≤ 0.026
13,A9G G25C U57C,≤ 0.026
14,A9G G25U C56A,≤ 0.026
15,A9G G25U G85C,≤ 0.026
16,A9G G26C G59U,≤ 0.026
17,A9G G26U,≤ 0.026
18,A9G G26U A62G G78C,≤ 0.026
19,A9G G28A G61A,1.24
20,A9G G32A A54G G61U G73U,≤ 0.026
